B1: PhoQ; a variant is named by its letters at X, in order, P23837 (parent)
chain: MKKLLRLFFPLSLRVRFLLATAAVVLVLSLAYGMVALIGYSVSFDKTTFRLLRGESNLFYTLAKWENNKLHVELPENIDKQSPTMTLIYDENGQLLWAQRDVPWLMKMIQPDWLKSNGFHEIEADVNDTSLLLSGDHSIQQQLQEVREDDDDAEMTHSVAVNVYPATSRMPKLTIVVVDTIPVELKSSYMVWSWFIYVLSANLLLVIPLLWVAAWWSLRPIEALAKEVRELEEHNRELLNPATTRELTSLVRNLNRLLKSERERYDKYRTTLTDLTHSLKTPLXXLQXXLRSLRSEKMSVSDAEPVMLEQISRISQQIGYYLHRASMRGGTLLSRELHPVAPLLDNLTSALNKVYQRKGVNISLDISPEISFVGEQNDFVEVMGNVLDNACKYCLEFVEISARQTDEHLYIVVEDDGPGIPLSKREVIFDRGQRVDTLRPGQGVGLAVAREITEQYEGKIVAGESMLGGARMEVIFGRQHSAPKDE

The values that follow come from a collection of fitness landscapes (doi:10.1126/science.1257360).

Some of the results follow. A value given as a limit tells only on which side of the number the result lay.

In the experiment the parent is B1. The experiment can be described thus: enrichment ratio after two sorts for PhoP signalling (ratio (wild type AVST 3.29)); higher = more functional. The conditions noted are these: with PhoP (E. coli).
In the case of WKRL, the enrichment ratio is at most 0.25. Take RCVL: the enrichment ratio was at most 0.25.

Turning to APYM, the enrichment ratio is at most 0.25. Regarding LMAL, the enrichment ratio is at most 0.25. With YMYI the figure was at most 0.25; with PAPQ, at most 0.25. The figure for KKHE is at most 0.25. With GTHL the figure was at most 0.25. As for TTQN, the enrichment ratio is at most 0.25. The figure for YQAE is 0.299; for VRNQ it is at most 0.25; for MKYA it is at most 0.25. As for QMEI, the enrichment ratio is at most 0.25.

On to DDWA, for which the enrichment ratio was at most 0.25. As for IYVV, the enrichment ratio is at most 0.25.

For YYEG, the enrichment ratio was at most 0.25. With NKGI the figure was at most 0.25; with MYHR, at most 0.25. With PVMD the figure was at most 0.25; with QCWM, 7.93; with YDNN, at most 0.25. The figure for FMYC is at most 0.25; for SHMN it is at most 0.25; for QENR it is at most 0.25.

With LILP, the enrichment ratio is at most 0.25. The figure for HPLG is at most 0.25. The figure for KCCY is at most 0.25; for THYS it is at most 0.25; for RREF it is at most 0.25. The figure for AEQS is at most 0.25. DKQV: the enrichment ratio was at most 0.25. With EFWF the figure was at most 0.25; with HERM, at most 0.25.

As for SADF, the enrichment ratio is at most 0.25. The figure for QALL is 11.2. With VHWS the figure was at most 0.25. With GRRI the figure was at most 0.25. Regarding IRLA, the enrichment ratio worked out at 0.272. The figure for MVVC is at most 0.25; for GRDT it is at most 0.25. The figure for KTRS is at most 0.25; for QGRD it is at most 0.25.

As to VSKL, the enrichment ratio was at most 0.25. The figure for LRRL is at most 0.25; for FPSD it is at most 0.25; for YWDF it is at most 0.25. The figure for HTNG is 5.74. With IGWT the figure was 0.459; with TVTI, 7.06. Turning to FRIC, the enrichment ratio was at most 0.25. For the variant HMWD, the enrichment ratio is at most 0.25. With DGYY, the enrichment ratio is at most 0.25. With EMRE the figure was at most 0.25.

Regarding QEMT, the enrichment ratio stood at 5.12. With YHQY the figure was at most 0.25; with PDQG, at most 0.25. The figure for NFYY is at most 0.25; for DKRY it is at most 0.25. As for ITLF, the enrichment ratio came out at 1.07.

Consider PKDQ, for which the enrichment ratio is at most 0.25. The figure for GTSA is at most 0.25; for VFPG it is at most 0.25. The figure for ELCQ is at most 0.25; for MMIT it is at most 0.25; for WLCT it is at most 0.25. The figure for DNEP is at most 0.25; for WPWL it is at most 0.25; for SHSH it is 0.368. As to GFKH, the enrichment ratio was at most 0.25. With KAPT the figure was at most 0.25. For MFQC, the enrichment ratio was at most 0.25.

VHRP: the enrichment ratio is at most 0.25. With LQNS the figure was at most 0.25; with ATHR, at most 0.25. The figure for HLVT is at most 0.25; for IWVC it is at most 0.25.

With IWIS, the enrichment ratio was at most 0.25. With ESLN the figure was at most 0.25; with YIVV, at most 0.25; with FPEN, at most 0.25. For DYFH, the enrichment ratio is at most 0.25. As to TDHR, the enrichment ratio is at most 0.25. With EDTC the figure was at most 0.25. For the variant FMFV, the enrichment ratio was at most 0.25. With DAHE the figure was at most 0.25; with LRSL, at most 0.25. With AQMH the figure was at most 0.25; with RAER, at most 0.25. The figure for MYFG is at most 0.25; for LNFQ it is at most 0.25. With LFVS, the enrichment ratio was at most 0.25.

Turning to YVAK, the enrichment ratio is at most 0.25. The figure for MLPV is at most 0.25; for ASSW it is at most 0.25; for LCCG it is at most 0.25.

SDET: the enrichment ratio is at most 0.25. With GATL the figure was 6.3; with VLYS, at most 0.25; with YLRH, at most 0.25. The figure for KALY is at most 0.25. The figure for GCVH is at most 0.25; for WPFA it is at most 0.25.

On to TEID, for which the enrichment ratio is at most 0.25. For KRKV, the enrichment ratio is at most 0.25. With GYAI the figure was at most 0.25; with SFHY, at most 0.25.

As for LPIW, the enrichment ratio is at most 0.25.

In the case of EGPY, the enrichment ratio is at most 0.25. With RWMG the figure was at most 0.25.

With NEQL, the enrichment ratio is at most 0.25. With INDR the figure was at most 0.25; with PHQD, at most 0.25; with IHHN, at most 0.25. With ESRN the figure was at most 0.25; with YLQI, 0.285; with TSAV, 16.5.

GRMS: the enrichment ratio is at most 0.25. The figure for WIRH is at most 0.25. With VDLP the figure was at most 0.25; with YQCW, at most 0.25. The figure for SSWE is at most 0.25; for FVIV it is at most 0.25. TNRL: the enrichment ratio was at most 0.25. Consider TELL, for which the enrichment ratio worked out at 16.9. As to SETL, the enrichment ratio was 14.8.

In the case of LLAY, the enrichment ratio was at most 0.25.

In the case of TFQM, the enrichment ratio is at most 0.25. The figure for EAKP is at most 0.25.

Take YTPV: the enrichment ratio is at most 0.25. The figure for TMPG is at most 0.25; for PWYT it is at most 0.25. With IRHE, the enrichment ratio is at most 0.25. For the variant LFFH, the enrichment ratio is at most 0.25. With WYGA the figure was at most 0.25; with SHHC, at most 0.25. With SQAE the figure was at most 0.25.

On to AMAA, for which the enrichment ratio was 1.39. The figure for PQTE is at most 0.25; for DLRY it is at most 0.25; for YSGV it is at most 0.25.

For the variant GFNE, the enrichment ratio was at most 0.25. The figure for VDAR is at most 0.25; for NKNC it is at most 0.25; for MGQP it is at most 0.25.

In the case of ICCK, the enrichment ratio was at most 0.25. Take SEVY: the enrichment ratio amounted to 3.24. The figure for KATM is at most 0.25; for MKYG it is at most 0.25. As to FYCI, the enrichment ratio was at most 0.25. Regarding ECME, the enrichment ratio was at most 0.25.

With YEDV, the enrichment ratio is at most 0.25. Consider KKKA, for which the enrichment ratio was at most 0.25. Consider WTLN, for which the enrichment ratio is at most 0.25.
